In the supplement of paper PMC4723716:
Over roughly 3,600 compounds, “viability index relative to DMSO control” has its median near 0.81; the lowest 2% begin near 0.13. The list shows a part of the results.
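Further: 384-well serum-free SaLSSA: MitoTracker Red CMXRos staining with saponin lysis, high-content imaging, treated-well particle count divided by plate-mean count of DMSO wells.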

Each compound was assayed on Plasmodium falciparum NF54 stage V gametocytes (assay: viability index relative to DMSO control (fraction); higher = less gametocyte killing). Conditions: 1.25 µM, incubation time: 72 h.
`Cc1ccc(S(=O)(=O)N=C2C=C(Sc3nc4ccccc4[nH]3)C(=O)c3ccccc32)cc1` was tested, and the viability index was 0.247.
In the case of `COc1cccc(OC)c1C(=O)Nn1c(-c2cccc(C)c2)nc2ccccc2c1=O`, the viability index is reported as 0.762.
With `CCOc1ccc(C(=O)C(C)[n+]2cc(-c3ccc(Cl)cc3)n3c2CCC3)cc1` (stereo not given) the viability index was 0.812.
`Cc1ccc(C=Cc2ccc(N(C)C)cc2)[n+](C)c1` gave a viability index of 0.77.
In the case of `COCCn1c(=S)[nH]c2cc(C(=O)NCCc3ccc(S(N)(=O)=O)cc3)ccc2c1=O`, the viability index is reported as 0.936.
For `Cc1cccc(OCC(O)CN2CCN(CC(=O)c3ccc(Br)cc3)CC2)c1` (stereo not given), the viability index was 0.739.
`C=CCOc1ccc(C2C(C(=O)OCC)=C(C)N=c3sc(=Cc4ccccc4O)c(=O)n32)cc1OCC` (stereo not given) was tested, and the viability index was 0.766.
In the case of `C[N+]1(CCOC(=O)CCC(=O)OCC[N+]2(C)CCCCCC2)CCCCCC1`, the viability index is reported as 0.996.
`Cc1cc(C)cc(NC(=S)NCCO)c1` gave a viability index of 0.78.
In the case of `CCOC(=O)C1=C(C)NC2=C(C(=O)C(C(=O)OCC)C(c3ccccc3OC)C2)C1c1sccc1C` (stereo not given), the viability index is reported as 0.544.
For `COc1cccc(CN2CCC(O)(c3ccc4oc(C(=O)Nc5ccc(Cl)cc5)cc4c3)CC2)c1`, the viability index was 1.07.
Work on `CCOC(=O)C1=C(C)NC2=C(C(=O)CC(c3ccc(OC)c(OC)c3)C2)C1c1ccccc1OC` (stereo not given) yielded a viability index of 0.68.
`CCOC(=O)c1cccc(NC(=O)CCn2c(-c3ccc(F)cc3)cc(C(=O)OCC)c2C)c1` gave a viability index of 0.888.
`Clc1ccc(-c2c[n+](Cc3ccccc3Cl)c3n2CCC3)cc1Cl` was tested, and the viability index was 1.11.
Work on `CCCCN(C)Cc1cc(-c2cccc(OC)n2)ccc1O` yielded a viability index of 0.625.
Work on `CN(C)c1ccc(C=C2SC(=N)N(c3nccs3)C2=O)cc1` yielded a viability index of 0.775.
`CCCCCc1ccc(OCCCC[n+]2cccc(C)c2C)c(CCCCC)c1` showed a viability index of 0.521.
`CC1(C)CC(=O)c2cc(-c3ccc(Br)cc3)n(-c3ccccc3F)c2C1` gave a viability index of 0.634.
Compound `O=C(Nc1ccc(Cl)c(Cl)c1)Nc1cc(C(=O)NCCCN2CCCCCC2)ccc1Cl` has a viability index of 0.867.
With `COc1ccc(C2=C(c3ccc(OC)cc3)C3(c4ccccc4)C(=O)C2(c2ccccc2)C2C(=O)N(c4ccc(F)cc4)C(=O)C23)cc1` (stereo not given) the viability index was 0.864.
With `Cc1cc(C)c(S(=O)(=O)NCc2ccc(Cl)cc2)c(C)c1` the viability index was 0.98.
`O=[N+]([O-])c1ccc2nc(Nc3ccccc3)c(Nc3ccccc3)nc2c1` gave a viability index of 0.481.
Compound `O=C(Nc1ccon1)c1cc(-c2cccnc2)nc2ccc(Cl)cc12` has a viability index of 0.82.
In the case of `COc1ccc(S(=O)(=O)NCC2CCC(C(=O)NCC(OC)OC)CC2)cc1` (stereo not given), the viability index is reported as 0.983.
`Nc1c(C(=O)Nc2ccc(F)cc2)sc2nc3c(c(-c4cccs4)c12)CCCCC3` showed a viability index of 1.13.
Work on `CCCCN(C)CCCNC(=O)c1ccc(Cl)c(NC(=O)Nc2ccc(Cl)c(Cl)c2)c1` yielded a viability index of 0.531.
For `CCC(C)Nc1nc(NC(C)CC)nc(N2CCCCCC2)n1` (stereo not given), the viability index was 0.864.
For `COc1cc(Br)c(C2CC(=O)Nc3ccc4ccccc4c32)cc1OC` (stereo not given), the viability index was 0.857.
In the case of `COC(=O)C1CCCCN1S(=O)(=O)c1ccc(C)cc1` (stereo not given), the viability index is reported as 0.952.
With `C=CCN1C(=O)C(=C2Sc3ccc(OC)cc3N2C)SC1=Nc1ccccc1-c1ccccc1` the viability index was 0.448.
`CCCCN1C(=O)N(c2ccccc2C)C(C)(O)CC1(C)C` (stereo not given) showed a viability index of 0.865.
`CCOC(=O)c1ccc(NC(=O)CSc2nc(NCc3ccccc3)c3ccccc3n2)cc1` showed a viability index of 0.929.
`Cc1cc2c(cc1C)NC(c1ccccc1F)C1=C(CC(C)(C)CC1=O)N2` (stereo not given) showed a viability index of 0.695.
For `CC(=O)O[C@H]1C(=O)[C@@]2(C)C([C@H](OC(=O)c3ccccc3)[C@]3(O)C[C@H](OC(=O)[C@@H](O)[C@@H](NC(=O)c4ccccc4)c4ccccc4)C(C)=C1C3(C)C)[C@]1(OC(C)=O)CO[C@@H]1C[C@@H]2O` (stereo not given in full), the viability index was 0.375.
With `COC(=O)CC(NS(=O)(=O)c1ccc(OC)cc1)c1ccc2c(c1)OCO2` (stereo not given) the viability index was 1.04.
For `COC(=O)c1c(NC(=O)c2cc3ccccc3oc2=O)sc2c1CCC(C)C2` (stereo not given), the viability index was 1.13.
For `C[n+]1c2ccccc2nc2ccc(NC3CCCCC3N)cc21` (stereo not given), the viability index was 0.541.
Work on `COC(CNC(=O)c1c[nH]c2ccc(S(=O)(=O)N3CCN(C)CC3)cc2c1=O)OC` yielded a viability index of 0.979.
For `CCCCCCCCNC(=O)C1CC1c1ccccc1` (stereo not given), the viability index was 0.785.
`O=C(C(Cc1ccc(O)cc1)c1ccccc1)N1CCC(n2c(Cc3ccc(F)cc3)nc3cccnc32)CC1` (stereo not given) showed a viability index of 1.
`CCOC(=O)c1sc(NC(=O)CSc2nnc(CNC(=O)COc3ccc(Cl)cc3)n2C)c(C(=O)OCC)c1C` gave a viability index of 0.938.
`O=C(c1ccc2ccccc2c1)N1CCc2ccccc21` gave a viability index of 0.926.
Compound `CCOC(=O)c1oc2cc(O)c(CC)cc2c(=O)c1-c1ccc2c(c1)OCO2` has a viability index of 1.09.
Work on `CN1CCN(CCCNc2ccnc3cc4ccccc4cc23)CC1` yielded a viability index of 0.533.
With `CC(=O)c1c(C)n(CC(=O)Nc2cccc(C)c2)c2ccccc12` the viability index was 1.01.
